Measured values taken from PubChem BioAssay AID504444 (National Center for Advancing Translational Sciences (NCATS), 2011).
The campaign covered roughly 360,000 compounds. About 7,500 (2.1%) were called active. About 20% were inconclusive and are not listed. Calls come from the whole dose curve; as a rule, active = well fitted inhibition curve with a large enough effect; inconclusive = small, poorly fitted or top-dose-only effect, or effect the other way; inactive = flat fitted curve, though single readings scatter. Only a part is listed here, and it is no random draw.

Test: Nrf2 qHTS screen for inhibitors; note: nearly all actives have a fitted effect of over 60% in size
Conditions: A549 ARE-Fluc reporter, luciferase luminescence, 18-24 h; series mostly up to 46 µM; activity change, negative = inhibition: at the top concentration
Procedure, shortened: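 Quantitative HTS in A549 cells stably bearing an antioxidant response element-firefly luciferase construct. Inhibition of Nrf2-driven transcription was scored by luminescence after 18-24 h of compound exposure at 37 °C.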
% is set by controls: 0 for no effect and ±100 for the full control effect; potency is the fitted concentration of half-maximal effect.

Row | SMILES | activity change, negative = inhibition | Potency
1 | COc1cc(O)c(C(CC(=O)N2CCN(c3ccccc3)CC2)c2ccc3c(c2)OCO3)c(OC)c1 (centres undefined) | inactive: 1.31% | –
2 | CCC(=O)/C=C1/Sc2ccc(OC)cc2N1CCO | inactive: 0.493% | –
3 | C=CCC[C@@H](Cc1ccc(F)cc1)C(=O)OC[C@H](C)NC(=O)[C@@H](CC=C)CC(=O)N[C@@H](CO)Cc1ccccc1 | inactive: -10.9% | –
4 | COc1cc(/C=C2\SC(=O)NC2=O)ccc1Oc1ccc([N+](=O)[O-])cc1[N+](=O)[O-] | inactive: -16.9% | –
5 | CCC(C(=O)Nc1cc(F)ccc1F)n1nc(C)c2c(C)n(-c3ccc(C)cc3)nc2c1=O (centres undefined) | – | active: 23.1 µM
6 | O=[N+]([O-])c1cccc(/C([O-])=C(/C(=S)Nc2cccc3ccccc23)[n+]2ccccc2)c1 | inactive: 21.3% | –
7 | COC(=O)[C@@H]1[C@@H](C)N(Cc2ccccc2)C(=O)N[C@H]1c1cccc(C(F)(F)F)c1 | inactive: -22.9% | –
8 | CC(C)(C)S(=O)N1Cc2ccc(CO)cc2[C@H]1CCO (some centres undefined) | inactive: 3.69% | –
9 | Cc1ccc(C(=O)Nc2nnc(S(=O)(=O)N3CCOCC3)s2)cc1 | inactive: 18.1% | –
10 | CCCCCc1ccc(OCCCC[n+]2ccc(C)cc2)c(CCCCC)c1 | – | active: 10.3 µM
11 | Cc1ccc(S(=O)(=O)N2CCC(Oc3ccc(-n4cnnn4)cc3)CC2)cc1 | inactive: -19% | –
12 | COc1ccc(/C=C/c2nnc(NC(=O)CSc3ccc(C)cc3)s2)cc1 | inactive: 6.75% | –
13 | C=CCC[C@@H](Cc1ccc(F)cc1)C(=O)OC[C@H](Cc1c[nH]c2ccccc12)NC(=O)[C@H](CC=C)CC(=O)NCCO | inactive: -11.2% | –
14 | CCN1CCSc2ccc(C(=O)NCc3ccc(OC(C)C)cc3)cc21 | inactive: -8.12% | –
15 | Cc1cc(C)c(NC(=O)Cn2c(=O)c3cccn3c3ccccc32)c(C)c1 | inactive: 3.92% | –
16 | O=C(N/N=C/C=C/c1ccccc1)c1cnccn1 | inactive: 24.4% | –
17 | C=CC[C@@H](CC(=O)N(CCO)Cc1ccccc1)C(=O)N[C@@H](COC(=O)[C@@H](CC=C)CC(=O)OC(C)(C)C)Cc1c[nH]c2ccccc12 | inactive: -25.7% | –
18 | C=CC[C@@H](CC(=O)N[C@H](CO)Cc1ccccc1)C(=O)N[C@H](COC(=O)[C@@H](CC=C)CC(=O)OC(C)(C)C)Cc1ccccc1 | inactive: 1.15% | –
19 | N=c1c2c(n(Cc3ccccc3)c3c1CCC3)CCC2 | – | active: 1.46 µM
20 | COc1ccc(C)cc1NC(=O)c1ccc(NS(=O)(=O)c2c(C)noc2C)cc1 | inactive: -0.831% | –

Row | SMILES | activity change, negative = inhibition | Potency
21 | CN1C(C(=O)Nc2cccc(O)c2)=CC(c2cccs2)=NS1(=O)=O | inactive: -8.02% | –
22 | C=CCC[C@@H](Cc1ccc(F)cc1)C(=O)OC[C@@H](C)NC(=O)[C@H](CC=C)CC(=O)N(CCO)Cc1ccccc1 | inactive: -20.4% | –
23 | NC(=O)c1cc(S(=O)(=O)NCc2cccc(Br)c2)cs1 | inactive: -27.1% | –
24 | C=CCOC(=O)C1=C[C@H](c2csc3ccccc23)C[C@H](OCc2ccc(CO)cc2)O1 | inactive: -15.6% | –
25 | NC(=O)N1c2ccccc2C=Cc2ccccc21 | inactive: -7.07% | –
26 | C/C(=N/Nc1ccc(C(=O)c2c(C)cc3ccccn23)cc1[N+](=O)[O-])c1ccc(O)cc1 | inactive: 12.2% | –
27 | CCn1c(SCC(=O)N/N=C/C=C/c2ccccc2[N+](=O)[O-])nnc1-c1ccccc1 | inactive: 5.6% | –
28 | Cc1nc(-c2ccc(S(=O)(=O)N3CCN(Cc4ccccc4)CC3)s2)cs1 | – | active: 16.4 µM
29 | CN1C(c2ccc(F)cc2)=CS/C1=C(/C#N)c1nnc2n1-c1ccccc1SC2 | inactive: -26.9% | –
30 | N#Cc1ccc(NC(=O)Nc2ccc(Cl)cc2)cc1 | – | active: 18.4 µM
31 | CCC(CC)C(=O)Nc1nnc(S(=O)(=O)N2c3ccccc3CC2C)s1 (centres undefined) | inactive: 2.07% | –
32 | CCOC(=O)Cn1c(=O)oc2cc(S(=O)(=O)NC(C)c3ccccc3)ccc21 (centres undefined) | inactive: 17% | –
33 | COc1cc(NC(=O)C(=O)Nc2ccc3nc4n(c(=O)c3c2)CCCCC4)cc(OC)c1OC | inactive: -21.6% | –
34 | CCOC(=O)/C(=C/C=C/c1ccccc1)NC(=O)c1ccccc1 | inactive: -10.3% | –
35 | CCc1cccc(NC(=O)C2CCCN(S(=O)(=O)c3cccs3)C2)c1 (centres undefined) | inactive: -25.2% | –
36 | COc1ccc(C(CC(=O)N2CCCCC2)c2c(O)cc(OC)cc2OC)cc1 (centres undefined) | inactive: 3.94% | –
37 | CN(C[C@H](Cc1ccccc1)N(C[C@H](Cc1cccc2ccccc12)N(CCc1ccccc1)N=O)N=O)N=O | inactive: 7.52% | –
38 | C[C@H](NC(=O)c1nc[nH]c1C(=O)N[C@@H](C)c1ccccc1)c1ccccc1 | inactive: 2.1% | –
39 | CCOC(=O)C1=C(CN2CCN(c3ccccc3F)CC2)NC(=O)NC1c1ccc(Cl)cc1 (centres undefined) | – | active: 20.6 µM
40 | COc1ccc(OCC(=O)Nc2nnc(S(=O)(=O)N3CCCCCC3)s2)cc1 | inactive: -3.35% | –

Row | SMILES | activity change, negative = inhibition | Potency
41 | CCc1ccccc1NC(=O)C1=CC(c2ccc(OC)c(OC)c2)=NS(=O)(=O)N1C | inactive: 6.06% | –
42 | CCO[C@H]1OC(C(=O)N2CCN(Cc3ccccc3)CC2)=C[C@@H](c2coc3ccccc3c2=O)[C@@H]1CCCO | inactive: -4.8% | –
43 | COc1ccc(-c2cc(C)no2)cc1S(=O)(=O)NCc1ccc(OC(C)C)cc1 | inactive: 12.9% | –
44 | COc1cc(NC(=O)c2cc(-c3ccc4c(c3)OCO4)on2)cc(OC)c1OC | inactive: -8.86% | –
45 | Cn1c(=O)n(CC(=O)O)c(=O)c2c1nc1n2CCS1 | inactive: -4% | –
46 | CCOC(=O)[C@@H]1[C@H]2COc3ccc(Br)cc3[C@H]2N2C(=O)N(c3ccc(OC)cc3)C(=O)[C@]12C | inactive: -11.4% | –
47 | C=CCC[C@@H](Cc1ccc(F)cc1)C(=O)OC[C@@H](Cc1c[nH]c2ccccc12)NC(=O)[C@H](CC=C)CC(=O)N(CCO)Cc1ccccc1 | – | active: 23.1 µM
48 | COC(=O)[C@H](C)[C@H]1C[C@]1(C)[C@H](NC(=O)OCc1ccccc1)c1ccccc1 | inactive: 3.66% | –
49 | COc1ccc(OC2CCN(S(=O)(=O)c3cccc(F)c3)CC2)cc1 | inactive: -15% | –
50 | C=CCC[C@H](Cc1ccc(F)cc1)C(=O)OC[C@@H](Cc1c[nH]c2ccccc12)NC(=O)[C@@H](CC=C)CC(=O)NCCO | inactive: -17.7% | –
51 | CC(C)(C)OC(=O)C[C@H]1C/C=C\C[C@@H](CC(=O)N(CCO)Cc2ccccc2)C(=O)NC[C@@H](c2ccccc2)OC1=O | inactive: 10% | –
52 | O=C(NC(Nc1nc2ccc([N+](=O)[O-])cc2s1)(C(F)(F)F)C(F)(F)F)c1cccnc1 | – | active: 5.8 µM
53 | Cc1cccc(OCC(=O)Nc2nnc(S(=O)(=O)N3CCCCCC3)s2)c1 | inactive: -2.48% | –
54 | CN(Cc1nccn1C)C(=O)c1cc(COc2ccc3ncccc3c2)on1 | – | active: 20.6 µM
55 | CCN1C(=O)[C@@H]2[C@@H](c3ccc(-c4ccc(C(C)=O)cc4)c(OC)c3)N3CCCC[C@@]3(C(=O)OC)[C@@H]2C1=O | inactive: 0.126% | –
56 | CCOC(=O)N1C(=O)[C@](CC)(c2ccccc2)N1C(=O)OCC | inactive: -4.45% | –
57 | Cc1ccc(-n2ncc3c(SCc4cccnc4)ncnc32)c(C)c1 | – | active: 4.11 µM
58 | CCOc1ccc(NS(=O)(=O)c2c(C)nc3sc(CC)nn3c2=O)cc1 | inactive: -5.07% | –
59 | CC(=O)OCC(=O)C1(O)CCC2C3CC(F)C4=CC(=O)CCC4(C)C3C(O)CC21C (centres undefined) | – | active: 0.0651 µM
